Laboratory results reported in paper PMC6919601, “Identification of Plasmodium dipeptidyl aminopeptidase allosteric inhibitors by high throughput screening” (PLoS ONE, 2019).
Hit rate of the full screen: of about 110,000 compounds, about 230 (0.21%) showed an effect of 50% or more. This is one part of the list.

Each molecule was assayed against DPAP1 (Plasmodium falciparum, UniProt Q8IIJ9) (assay: primary screen, percent inhibition; read by cleavage of a fluorogenic dipeptide substrate; higher = more effect of the substance).
Parameters: species or system P. falciparum D10 trophozoite lysates; single well
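Also: 30 min substrate incubation versus DMSO and 10 µM JCP410 controls.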

Chain of DPAP1 (Q8IIJ9 whole entry, looked up): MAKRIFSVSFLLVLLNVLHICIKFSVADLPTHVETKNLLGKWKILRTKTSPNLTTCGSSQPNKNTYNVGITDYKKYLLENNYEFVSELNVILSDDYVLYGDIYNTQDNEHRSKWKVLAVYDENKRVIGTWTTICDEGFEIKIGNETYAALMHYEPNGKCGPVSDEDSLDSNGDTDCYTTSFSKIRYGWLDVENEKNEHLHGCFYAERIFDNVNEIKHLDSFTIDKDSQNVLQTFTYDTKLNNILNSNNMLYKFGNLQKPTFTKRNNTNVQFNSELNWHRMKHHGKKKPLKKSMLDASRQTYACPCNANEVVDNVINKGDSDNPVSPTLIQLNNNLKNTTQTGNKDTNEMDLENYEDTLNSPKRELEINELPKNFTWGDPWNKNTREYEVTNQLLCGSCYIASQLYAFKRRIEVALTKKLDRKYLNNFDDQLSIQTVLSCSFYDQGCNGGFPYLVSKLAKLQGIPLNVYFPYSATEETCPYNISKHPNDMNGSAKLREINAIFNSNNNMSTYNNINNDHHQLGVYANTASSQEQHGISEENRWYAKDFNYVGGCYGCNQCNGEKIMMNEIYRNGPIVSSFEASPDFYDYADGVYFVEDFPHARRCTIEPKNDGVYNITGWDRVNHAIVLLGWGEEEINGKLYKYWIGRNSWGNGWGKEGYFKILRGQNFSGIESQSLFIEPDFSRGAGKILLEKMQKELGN

Row | Compound | % Inhibition @ 10 uM
1 | Cc1ccc2c(Sc3ccc(Cl)cc3)c(C(=O)NCCN3CCOCC3)[nH]c2c1 | -2.78%
2 | COc1cccc(C(=O)Nc2ccc(OCC(=O)c3ccc(F)cc3)cc2)c1 | 2.64%
3 | COc1ccc(-c2csc(NC(=O)c3cc4ccccc4oc3=O)n2)c(OC)c1 | 4.67%
4 | C=CCNC(=O)CN(c1ccccc1OCC)S(C)(=O)=O | -1.26%
5 | O=C(Nc1ccccc1C#Cc1ccccc1)C(c1ccccc1)c1ccccc1 | 2.76%
6 | Cc1ccc(-c2ccc(=O)n(C(C)C(=O)c3ccc(C)c(C)c3)n2)cc1 (centres unmarked) | 2.2%
7 | CCCN1CCC(N[C@H]2CC[C@H](O)CC2)CC1 | -4.14%
8 | COc1cccc(OCC(=O)Nc2cc(C)on2)c1 | -10.7%
9 | COc1ccccc1C(=O)Nc1ccccc1N1CCN(C(=O)c2ccccc2)CC1 | 2.5%
10 | CC(=O)c1c(-c2ccccc2)nc2n(CCN3CCCCC3)c3ccccc3n12 | -2.99%
11 | CCc1c(C#N)c(N)nc(S)c1C#N | 74.5%
12 | CCn1cc(C(=O)NCCOC)c(=O)c2ccc(C)nc21 | 2.79%
13 | O=C(CCN1CCN(C(c2ccccc2)c2ccccc2)CC1)c1ccccc1 | -4.43%
14 | Cc1cccc(OCCn2c(C)nc3cc(C)c(C)cc32)c1 | -1.11%
15 | CC1(c2ccccc2)CC(C)(C)N(C(=O)c2cccc(F)c2)c2ccccc21 (centres unmarked) | -1.85%
16 | CC1=CC(=O)C(Cl)=C(C)/C1=N\S(=O)(=O)c1ccc(C)cc1 | 1.67%
17 | CC1(C)[C@H]2CC=C(CN3CCCC(O)C3)[C@@H]1C2 (some centres unmarked) | 0.217%
18 | OCCN1CCN(Cc2ccc(Cl)cc2)CC1 | 0.135%
19 | CCCCN(C)Cc1ccccc1[N+](=O)[O-] | 2.7%
20 | N#CC1=C(N)Oc2c(c(O)nc3ccccc23)C1c1cccs1 (centres unmarked) | 4.51%
21 | CC1CCN(C(=O)Cn2cnc3c2c(=O)n(C)c(=O)n3C)CC1 | -0.116%
22 | Cc1ccc(NS(=O)(=O)c2ccc(Cl)cc2)cc1Cl | -1.48%
23 | CC1=C(c2ccc(C)cc2)S(=O)(=O)N=C1NCc1cccc(Cl)c1 | 0.623%
24 | Nc1nnc(-c2nonc2N)s1 | 1.72%
25 | CCC1(c2ccccc2)C(=O)c2ccccc2C1=O | 4.16%
26 | O=C(NC1(C(F)(F)F)C(=O)Nc2c1c(=O)[nH]c(=O)n2-c1ccc(F)cc1)c1cccc(Cl)c1 (centres unmarked) | 2.49%
27 | CCOC(=O)N1CCC(n2c(SCc3ccccc3Cl)nc3ccsc3c2=O)CC1 | -3.28%
28 | O=C1C=CC(=NS(=O)(=O)c2cccs2)C=C1 | 6.64%
29 | CC(C)CCN(C)C1CCN(S(=O)(=O)c2cccc(C(F)(F)F)c2)CC1 | 3.66%
